# Experimental data from the supplement of paper PMC3334620.
# The full ranking holds about 33,000 sequences; the median of “E-score (-0.5 to 0.5)” is about -0.012, and the highest 2% start at about 0.27. The list shows a part of the results.
# Target: T1, Vhr1 (UniProt P40522)
# T1 sequence: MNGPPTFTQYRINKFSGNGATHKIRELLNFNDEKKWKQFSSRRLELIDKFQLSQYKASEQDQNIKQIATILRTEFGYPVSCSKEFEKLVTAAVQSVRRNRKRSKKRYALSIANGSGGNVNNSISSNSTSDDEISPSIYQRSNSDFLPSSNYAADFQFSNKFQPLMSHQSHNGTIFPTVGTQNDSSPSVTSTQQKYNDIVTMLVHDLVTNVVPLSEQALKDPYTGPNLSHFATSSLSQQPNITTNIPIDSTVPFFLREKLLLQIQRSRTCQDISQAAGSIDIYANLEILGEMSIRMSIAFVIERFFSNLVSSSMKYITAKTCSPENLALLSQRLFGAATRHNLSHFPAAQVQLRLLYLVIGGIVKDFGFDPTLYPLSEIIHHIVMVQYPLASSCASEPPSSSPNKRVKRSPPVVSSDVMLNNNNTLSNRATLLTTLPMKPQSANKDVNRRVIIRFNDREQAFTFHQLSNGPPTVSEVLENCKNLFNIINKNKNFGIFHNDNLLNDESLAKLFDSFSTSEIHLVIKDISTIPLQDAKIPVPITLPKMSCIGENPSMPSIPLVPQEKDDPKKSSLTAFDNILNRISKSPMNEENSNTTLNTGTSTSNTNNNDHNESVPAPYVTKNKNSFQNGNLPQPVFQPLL
# Experiment: PBM E-score (8-mer binding enrichment) (E-score (-0.5 to 0.5)); higher = stronger / more preferred TF binding; most listed sequences are background and not binding sites
# Details: protein concentration: 200 nM; construct: GST-full length
# Outline: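 For each ungapped eight-base word taken together with its reverse complement, the Universal PBM Analysis Suite assigned an E-score. Binding data came from GST-tagged yeast transcription factors, applied at about 100-200 nM, on universal all-10-mer Agilent arrays made double-stranded by primer extension. Fluorescent anti-GST marked bound protein, and scans were normalised with masliner.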
row,Sequence,PBM E-score
1,TACACAGA,0.0473
2,CCTTACAC,0.0106
3,AACAAGCG,0.0196
4,GACCATTA,-0.00214
5,ACTTACAC,0.1
6,AGCGCCTG,-0.154
7,CAATGTCG,0.0376
8,AATGAGTC,0.426
9,CTTAGCGA,0.0219
10,GCGTTGCC,-0.172
11,GTTATCCA,-0.0557
12,CCATAGAC,0.0316
13,AATTCATA,0.055
14,CCAGTTAA,-0.0583
15,CCAAACAG,0.0173
16,GAGTAGAC,0.0677
17,CAAAGCTC,-0.118
18,GAGCGCTA,0.0038
19,GCCAGGAA,0.0174
20,AGTGACAT,0.113
21,GACCGTCC,-0.0842
22,AACACGTA,-0.0122

row,Sequence,PBM E-score
1,AACGTAGG,-0.233
2,ACGCACTG,-0.00333
3,AAAAGACA,-0.0564
4,AATCATCA,0.374
5,CATGGAAA,0.0272
6,ACAGCAGG,0.168
7,GAGTGGGA,0.0583
8,CCCATTAA,-0.0295
9,CCACGCGG,-0.0573
10,GCTATTTA,0.0569
11,GAAGCATA,-0.124
12,ATGACGGA,0.0646
13,CTGTTTAC,-0.172
14,ACTCTGCC,0.0422
15,ACCGAGAA,-0.0145
16,CTCCTAAC,-0.0328
17,CGCAGCCA,0.0674
18,TCACAAGA,0.0715
19,ATGCGTAC,0.0948
20,GTTTGCGA,-0.0627
21,CGCCGAAC,0.0162
22,CTGATGAA,-0.171

row,Sequence,PBM E-score
1,AACCTGTC,-0.131
2,ATTCGACC,-0.168
3,CGCGTTCC,0.0149
4,TGTAATAA,-0.0497
5,GAGTGAGA,-0.0209
6,ATAGCCAT,0.153
7,AGTTGGGA,-0.102
8,CTACCAGA,0.00647
9,ACGACACA,0.219
10,ATAGCTCG,-0.00817
11,CAAGTAAG,-0.123
12,CAGCGAGG,-0.0601
13,AAACGATT,0.104
14,GCATCTGA,0.016
15,CCATTTGC,-0.0124
16,ACGAACCA,0.273
17,AGATTCCT,0.0667
18,GCCTATAC,-0.128
19,CAAGGTGA,0.156
20,ATAACCGA,-0.0216
21,GCAGTGCC,-0.245
22,ATATGTCA,0.0767

row,Sequence,PBM E-score
1,GGTCACGA,0.09
2,CGGCAGAA,-0.126
3,TGGAACCA,0.21
4,TGACGCCA,-0.0528
5,GAGCCGAC,-0.00166
6,CGCCTATA,-0.135
7,GCCTTAGA,-0.114
8,CCTACACC,-0.0776
9,CATATGGA,0.105
10,AAATTAAT,-0.159
11,GACGGAGA,-0.0493
12,ACTAACCC,0.16
13,AGTCATCG,0.44
14,TCGTGTAA,-0.00574
15,ATTGCCCA,-0.113
16,CTGAGAAG,-0.193
17,GCGCCAGA,-0.139
18,TCCATTAA,-0.0449
19,AAAGTGCG,-0.158
20,GTATCCAC,0.0538
